The supplement of paper PMC8728848
The other results are listed elsewhere or left out.

Legend:
Test in all cases: glycan array binding signal (z-score within array); higher = stronger binding
Conditions in all cases: glycan notation: IUPAC condensed, linker removed; mutation: E227A
[1] = molecular target: Man(a1-2)Man(a1-3)[Man(a1-2)Man(a1-6)]Man
Summary of the method: (§1)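 Columns mapping to the same glycan were averaged after glycan names were converted to IUPAC-condensed notation. The data come from 3228 arrays in the Consortium for Functional Glycomics database, limited to those with an available protein sequence. Binding is reported as a within-array Z-score averaged across arrays of one protein sequence and across linkers.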

[2] = molecular target: Man(a1-2)Man(a1-3)[Man(a1-2)Man(a1-6)]Man(a1-6)[Man(a1-2)Man(a1-2)Man(a1-3)]Man
Summary of the method: as §1

[3] = molecular target: Man(a1-2)Man(a1-3)[Man(a1-2)Man(a1-6)]Man(a1-6)[Man(a1-2)Man(a1-2)Man(a1-3)]Man(b1-4)GlcNAc(b1-4)GlcNAc
Summary of the method: as §1

[4] = molecular target: Man(a1-2)Man(a1-3)[Man(a1-6)]Man(a1-6)[Man(a1-2)Man(a1-3)]Man(b1-4)GlcNAc(b1-4)GlcNAc
Summary of the method: as §1

[5] = molecular target: Man(a1-2)Man(a1-6)[Man(a1-3)]Man(a1-6)[Man(a1-2)Man(a1-2)Man(a1-3)]Man
Summary of the method: as §1

[6] = molecular target: Man(a1-2)Man(a1-6)[Man(a1-3)]Man(a1-6)[Man(a1-2)Man(a1-2)Man(a1-3)]Man(b1-4)GlcNAc(b1-4)GlcNAc
Summary of the method: as §1

Man(a1-3)[Man(a1-6)]Man = molecular target: Man(a1-3)[Man(a1-6)]Man
Summary of the method: as §1

[7] = molecular target: Man(a1-3)[Man(a1-6)]Man(a1-6)[Man(a1-2)Man(a1-3)]Man(b1-4)GlcNAc(b1-4)GlcNAc
Summary of the method: as §1

[8] = molecular target: Man(a1-3)[Man(a1-6)]Man(a1-6)[Man(a1-3)]Man
Summary of the method: as §1

[9] = molecular target: Man(a1-3)[Man(a1-6)]Man(a1-6)[Man(a1-3)]Man(b1-4)GlcNAc(b1-4)GlcNAc
Summary of the method: as §1

[10] = molecular target: Man(a1-3)[Man(a1-6)]Man(b1-4)GlcNAc(b1-4)GlcNAc
Summary of the method: as §1

[11] = molecular target: Man(a1-3)[Man(a1-6)]Man(b1-4)GlcNAc(b1-4)[Fuc(a1-6)]GlcNAc
Summary of the method: as §1

Man(a1-6)Man = molecular target: Man(a1-6)Man
Summary of the method: as §1

Man(b1-4)GlcNAc = molecular target: Man(b1-4)GlcNAc
Summary of the method: as §1

MurNAc(b1-4)GlcNAc = molecular target: MurNAc(b1-4)GlcNAc
Summary of the method: as §1

Neu5Ac(a2-3)Gal = molecular target: Neu5Ac(a2-3)Gal
Summary of the method: as §1

[12] = molecular target: Neu5Ac(a2-3)Gal(b1-3)GalNAc
Summary of the method: as §1

[13] = molecular target: Neu5Ac(a2-3)Gal(b1-3)GalNAc(b1-3)Gal(a1-4)Gal(b1-4)Glc
Summary of the method: as §1

[14] = molecular target: Neu5Ac(a2-3)Gal(b1-3)GalNAc(b1-4)Gal(b1-4)Glc
Summary of the method: as §1

[15] = molecular target: Neu5Ac(a2-3)Gal(b1-3)GalNAc(b1-4)[Neu5Ac(a2-3)]Gal(b1-4)Glc
Summary of the method: as §1

[16] = molecular target: Neu5Ac(a2-3)Gal(b1-3)GalNAc(b1-4)[Neu5Ac(a2-8)Neu5Ac(a2-3)]Gal(b1-4)Glc
Summary of the method: as §1

[17] = molecular target: Neu5Ac(a2-3)Gal(b1-3)GalNAc6S
Summary of the method: as §1

[18] = molecular target: Neu5Ac(a2-3)Gal(b1-3)GlcNAc
Summary of the method: as §1

[19] = molecular target: Neu5Ac(a2-3)Gal(b1-3)GlcNAc(b1-2)Man
Summary of the method: as §1

[20] = molecular target: Neu5Ac(a2-3)Gal(b1-3)GlcNAc(b1-2)Man(a1-3)[GlcNAc(b1-4)][Neu5Ac(a2-3)Gal(b1-3)GlcNAc(b1-2)Man(a1-6)]Man(b1-4)GlcNAc(b1-4)GlcNAc
Summary of the method: as §1

[21] = molecular target: Neu5Ac(a2-3)Gal(b1-3)GlcNAc(b1-2)Man(a1-3)[Neu5Ac(a2-3)Gal(b1-3)GlcNAc(b1-2)Man(a1-6)]Man(b1-4)GlcNAc(b1-4)GlcNAc
Summary of the method: as §1

[22] = molecular target: Neu5Ac(a2-3)Gal(b1-3)GlcNAc(b1-2)[Neu5Ac(a2-3)Gal(b1-3)GlcNAc(b1-4)]Man(a1-6)[Neu5Ac(a2-3)Gal(b1-3)GlcNAc(b1-2)Man(a1-3)]Man(b1-4)GlcNAc(b1-4)GlcNAc
Summary of the method: as §1

[23] = molecular target: Neu5Ac(a2-3)Gal(b1-3)GlcNAc(b1-3)Gal(b1-3)GlcNAc
Summary of the method: as §1

[24] = molecular target: Neu5Ac(a2-3)Gal(b1-3)GlcNAc(b1-3)Gal(b1-4)GlcNAc
Summary of the method: as §1

[25] = molecular target: Neu5Ac(a2-3)Gal(b1-3)GlcNAc(b1-3)GalNAc
Summary of the method: as §1

B1: Epa1-NP-mutant-E227A (Candida glabrata), Q6VBJ0 (protein)
chain: MILNPALFLNKCVCIYTTLILLLLTNGGYATSSNDISLASKDPTTFPLGCSPDITTPKKGLSMELYSYDFRKKGSYPCWDAAYLDPNYPRTGYKSHRLLAKVDGVTGNINFYYHATKGCTPQLGHLPASYNYPKPLTMTNFTMLLYGYFRPKVTGFHTFTISADDLLFVNFGAGNAFDCCRRDSSADHFGNYQAYAIWGSKTAKDELTVHLDAGVYYPIRLFYNNRAYDGALSFTFKTESNENTVSDFSEYFFSLDDTEEGCPGLISYDSSCASVKTSKIIGIDYHTETPNENLVPITKTIYHLGIPCTGTTTTPLCGSGFYDPLANKCVTINTSSTSSVTKTTSHTTSKEVSFHSSISSQKTLIPKSIPSPYGPIKSQSIPTEMETSSEISSSEYAFSDVISTPSHSPYTKKHSSLNSSSYTSTVIHSLTSYSISQGIFSTSLSEQNITSKSSTDKFSTATSMSNNITQSSIIISQFSTNNENYTTTSMHTSSDKISTETLNNSISTTTSILFSNSSTILKNNTTIISSDKDTHYHPVNPTIVCSTNKTEIICASITQPSISNSNNHWSSSVLKFNSTTVRSTLPSSAGSNETSINVPFSSSTESNTSTSSTSTSNSKMVRSTLPSSAGSNETSISVPFSSSTESNTSTSSTSTSNSKMVRSTLPSSAGSNETSINVPFSSSTESNTSTSSTSTSNSKTVRSTPFSSAGIIMTSLSQRNNKSASSYASSNSKCYNTADSCRKVHSTPSYLLTSSYTSEGVDYDCSLVSTKLKINDTNCVNNKHTTKSCLKTSVTTTIPTLEIKTARKSSSNTIGLHSYPTSSPNKSISSAPIIGYISSFKTIKTASPSYQTSDLTTITTITSLNNPGSTAVENTHESNDKSRKTSSNDISSKHSVIKETKDAVESSNKSHQTNTLKCSSIIIASSSHNSYESLGGTTLTLTLSKVYSPQNNDTLPFLEISEVNPSRTVLPESSKMMQYLTSTEERNKTARNTIATNIVSISTFHFEGEGNAIRMGYTQLLLMLIGIIVMNIGT
glycan array binding signal (z-score) [1]: -0.166 | glycan array binding signal (z-score) [2]: -0.185 | glycan array binding signal (z-score) [3]: -0.225 | glycan array binding signal (z-score) [4]: -0.198 | glycan array binding signal (z-score) [5]: -0.174 | glycan array binding signal (z-score) [6]: -0.187 | glycan array binding signal (z-score) (Man(a1-3)[Man(a1-6)]Man): -0.164 | glycan array binding signal (z-score) [7]: -0.194 | glycan array binding signal (z-score) [8]: -0.196 | glycan array binding signal (z-score) [9]: -0.196 | glycan array binding signal (z-score) [10]: -0.212 | glycan array binding signal (z-score) [11]: -0.176 | glycan array binding signal (z-score) (Man(a1-6)Man): -0.169 | glycan array binding signal (z-score) (Man(b1-4)GlcNAc): -0.171 | glycan array binding signal (z-score) (MurNAc(b1-4)GlcNAc): -0.194 | glycan array binding signal (z-score) (Neu5Ac(a2-3)Gal): -0.195 | glycan array binding signal (z-score) [12]: -0.186 | glycan array binding signal (z-score) [13]: -0.191 | glycan array binding signal (z-score) [14]: -0.214 | glycan array binding signal (z-score) [15]: -0.2 | glycan array binding signal (z-score) [16]: -0.159 | glycan array binding signal (z-score) [17]: -0.214 | glycan array binding signal (z-score) [18]: -0.186 | glycan array binding signal (z-score) [19]: -0.218 | glycan array binding signal (z-score) [20]: -0.191 | glycan array binding signal (z-score) [21]: -0.177 | glycan array binding signal (z-score) [22]: -0.188 | glycan array binding signal (z-score) [23]: -0.203 | glycan array binding signal (z-score) [24]: -0.228 | glycan array binding signal (z-score) [25]: -0.212
